# In PMC4336329 (PLoS ONE, 2015):
# Screen size: about 310,000 compounds; about 2,200 (0.71%) showed an effect of 50% or more. The effect is printed as a negative number. The list shows a part of the results.
# Molecular target: human ether-à-go-go-related gene (hERG) potassium channel (human, UniProt Q12809)
# Assay: primary screen, population patch clamp on CHO cells stably expressing hERG
# Chain of human ether-à-go-go-related gene (hERG) potassium channel (Q12809 whole entry, looked up): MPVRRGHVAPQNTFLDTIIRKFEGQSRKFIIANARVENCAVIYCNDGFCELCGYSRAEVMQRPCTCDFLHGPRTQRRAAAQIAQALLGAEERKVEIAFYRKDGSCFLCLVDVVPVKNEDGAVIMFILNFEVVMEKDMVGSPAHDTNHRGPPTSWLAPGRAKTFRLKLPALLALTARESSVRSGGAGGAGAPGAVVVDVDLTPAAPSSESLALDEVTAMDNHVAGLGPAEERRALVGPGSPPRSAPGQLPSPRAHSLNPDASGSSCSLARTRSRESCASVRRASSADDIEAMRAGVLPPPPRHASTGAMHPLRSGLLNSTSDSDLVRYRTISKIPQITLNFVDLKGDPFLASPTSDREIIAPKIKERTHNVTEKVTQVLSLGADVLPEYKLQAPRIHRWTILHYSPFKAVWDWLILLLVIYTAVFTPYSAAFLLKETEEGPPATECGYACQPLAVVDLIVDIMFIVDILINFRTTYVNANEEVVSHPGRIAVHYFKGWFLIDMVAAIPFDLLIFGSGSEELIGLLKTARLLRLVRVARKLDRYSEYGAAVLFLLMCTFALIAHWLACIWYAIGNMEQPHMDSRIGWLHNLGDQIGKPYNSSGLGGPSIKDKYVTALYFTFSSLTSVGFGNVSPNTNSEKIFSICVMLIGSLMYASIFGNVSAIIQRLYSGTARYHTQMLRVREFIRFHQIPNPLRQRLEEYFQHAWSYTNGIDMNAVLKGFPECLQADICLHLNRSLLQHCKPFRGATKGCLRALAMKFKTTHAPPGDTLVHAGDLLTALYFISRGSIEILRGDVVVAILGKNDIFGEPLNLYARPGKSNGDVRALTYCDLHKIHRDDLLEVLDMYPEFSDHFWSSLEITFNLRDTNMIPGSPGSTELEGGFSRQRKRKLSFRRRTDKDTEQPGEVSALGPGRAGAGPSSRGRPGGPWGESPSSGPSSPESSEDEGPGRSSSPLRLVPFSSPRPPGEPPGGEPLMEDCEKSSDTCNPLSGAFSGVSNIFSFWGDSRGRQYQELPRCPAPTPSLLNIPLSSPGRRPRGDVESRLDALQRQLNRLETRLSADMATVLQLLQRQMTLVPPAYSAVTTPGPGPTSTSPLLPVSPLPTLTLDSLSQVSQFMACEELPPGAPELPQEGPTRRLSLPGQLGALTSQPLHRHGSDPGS
row,Compound,"hERG current change (%, negative = inhibition) at 1uM [%]"
1,CCC1(c2ccccc2)C(=O)N(C(=O)OC(C)(C)C)N1C(=O)OC(C)(C)C (centres unmarked),20.4
2,O=C(c1cnn2cccnc12)N1CCN(Cc2ccc3c(c2)OCO3)CC1,14.9
3,CC(C)(C)C(=O)NC1CCSC1=O (centres unmarked),13
4,COc1cccc(/C=N/NC(=S)NCc2ccco2)c1OC,11.3
5,Cl.OC1CN=C2C=CC=CN2C1 (centres unmarked),0.821
6,CC(=O)c1c(C)nc2ccccc2c1N,9.49
7,COc1ccc(C(=O)NCC(=O)OCc2csc(-c3ccccc3)n2)cc1,5.94
8,COc1ccc(NC2=NCC(=O)N2c2ccccc2)c(OC)c1.Cl,15.5
9,COc1ccc(S(=O)(=O)NCC(=O)N(CC(=O)NCc2ccccc2)Cc2ccco2)cc1,4.13
10,COc1nc(SC)nc(Cl)c1Cc1ccc(OC(C)C)cc1,4.15
11,COc1cc(CN2CCN(C(=O)c3cccc4ccccc34)CC2)cc(OC)c1O.O=C(O)C(=O)O,7.5
12,CCOC(=O)N1CCC(NC(=O)CCC(=O)N2CC(C)Oc3ccc(C)cc32)CC1 (centres unmarked),9.67
13,O=C(NC1CCCCCC1)C1CC(=O)N(Cc2ccccc2)C1 (centres unmarked),7.39
14,Cn1ncc(C#N)c1/N=C/N1CCOCC1,8.44
15,COCCOC(=O)c1c(C)oc2ccc(NS(=O)(=O)c3ccc(C)cc3)cc12,-2.54
16,CCCS(=O)(=O)C(=C1Nc2ccccc2N1)S(=O)(=O)CCC,8.96
17,CCOc1cccc(OCCCCN2CCCCC2)c1,-3.79
18,O=S(=O)(NCc1ccccc1)NCc1ccc(Cl)cc1Cl,12.7
19,O=C(N/N=C/c1ccco1)Nc1ccccc1,10.3
20,Cl.Nc1ccn([C@H]2C[C@H](O)[C@@H](CO)O2)c(=O)n1,12.8

row,Compound,"hERG current change (%, negative = inhibition) at 1uM [%]"
1,C#C[C@]1(O)CCC2C3CCC4=C/C(=N/OCC(=O)NC(C)C(=O)NC(CCSC)C(=O)O)CC[C@]4(C)C3CC[C@@]21C (some centres unmarked),14.4
2,COc1cc(C(=O)NCCCCCCNC(=O)c2cc(OC)c(OC)c(OC)c2)cc(OC)c1OC,15.2
3,CCC(Sc1ccc2nnc(-c3ccc(F)cc3)n2n1)C(=O)O (centres unmarked),-7.62
4,CCOc1ccc(S(=O)(=O)N2CCCC(C(=O)NCc3ccncc3)C2)cc1Cl (centres unmarked),8.75
5,CC1Cc2ccccc2N1C(=O)CSc1nn2c(=O)c(C(C)(C)C)nnc2s1 (centres unmarked),7.86
6,Nc1cccc(CN2CCCC2)c1,18
7,CN(C(=O)c1ccccc1)c1ccccc1C(=O)NCCc1ccccc1,11.7
8,Cc1[nH]c2ccccc2c1SCc1nnc(SCc2ccccc2)n1C,-3.14
9,Cc1occc1C(=O)N(Cc1nc(-c2ccccc2)no1)C(C)C,-1.44
10,O=[N+]([O-])c1cc([As](=O)(O)c2ccc(O)c([N+](=O)[O-])c2)ccc1O,10.9
11,CC1=NC2(CCCc3c2no[n+]3[O-])N(O)C1(C)C (centres unmarked),11.3
12,CCOc1ccc(S(=O)(=O)N(CC(=O)NC2CCCCC2C)Cc2ccco2)cc1 (centres unmarked),0.208
13,O=C(CCCCl)NC(=S)Nc1ccc(N2CCOCC2)cc1,11.1
14,COc1cccc(C(=O)NC(=S)Nn2cnnc2)c1OC,7.89
15,CN1C(=O)CC(N2CCN(c3ncccn3)CC2)C1=O (centres unmarked),9.73
16,CCCn1c(N)c(C(=O)COC(=O)CCNS(=O)(=O)c2ccccc2F)c(=O)[nH]c1=O,10.3
17,CS(=O)(=O)N(CC(=O)N1CCCC1)c1ccc(OCc2ccccc2)cc1,2.42
18,Cc1ccc(C)c(CSc2nnc([C@@H]3CCCN3)o2)c1.Cl,12.1
19,Cc1nc2ccc(C(=O)O)cc2nc1C,25.1
20,O=C(NCC(=O)N1CCCCCCC1)c1cccc([N+](=O)[O-])c1,10.8

row,Compound,"hERG current change (%, negative = inhibition) at 1uM [%]"
1,CSc1ncccc1C(=O)OCc1cccc([N+](=O)[O-])c1,-0.11
2,Cc1ccc(S(=O)(=O)c2c(C)nn(C(C)(C)C)c2OC(=O)c2cccs2)cc1,-3.42
3,O=c1nc(-c2ccccc2)n(-c2ccc(Cl)cc2)[nH]1,10.7
4,O=C(CC(Nc1ccccc1Cl)C(=O)O)c1ccccc1 (centres unmarked),9.92
5,COc1ccc(N2C(=O)CSC2c2ccccc2)cc1 (centres unmarked),10.8
6,COc1ccc2oc(C(=O)NNC(=O)c3ccc(F)cc3)c(C)c2c1,22.5
7,CC(C)(C)NC(=O)Cn1c(=O)oc2cc(S(=O)(=O)N3CCc4ccccc43)ccc21,13.7
8,Cc1cccc(CCNC(=O)C2CCCN(S(=O)(=O)c3cnc[nH]3)C2)c1 (centres unmarked),5.05
9,COc1ccccc1NNC(=O)c1cccnc1Oc1ccccc1,11.3
10,O=C(Nc1c2c(nn1-c1ccccc1)CS(=O)C2)c1ccc(Br)o1 (centres unmarked),4.77
11,Cc1cc(N2CCOCC2)nc(SCC(=O)OCc2ccccc2)n1,-2.46
12,O=C(OCc1nnc(-c2ccccc2)o1)c1ccc(-n2cnnn2)cc1,8.86
13,COC(=O)N1CCc2c(sc(NC(=O)C3COc4ccccc4O3)c2C(N)=O)C1 (centres unmarked),12.9
14,CN1C(=S)N(c2cccnc2)C(=O)/C1=C\c1ccc(C(C)(C)C)cc1,11.6
15,Cc1ccc(N2CCN(C(=O)N3CCOCC3)CC2)c(C)c1,8.6
16,COc1ccc(/C=N/NC(=O)c2cccs2)c2ccccc12,6.17
17,Cc1ccc2cc(C#N)c(N3CCCN(S(=O)(=O)c4ccccc4)CC3)nc2c1C,1.93
18,COc1ccc(N2C(=O)C(Cl)=C(N3CCCC3)C2=O)cc1,13
19,O=C1OCc2ccc(NC(=O)C3CCCCC3)cc21,5.27
